The whole screen tested about 200,000 compounds, of which about 4,500 (2.2%) were called active. The shares of active, inactive and inconclusive entries below differ from those in the screen. Calls come from the whole dose curve; as a rule, active = well fitted inhibition curve with a large enough effect; inconclusive = small, poorly fitted or top-dose-only effect, or effect the other way; inactive = flat fitted curve, though single readings scatter. Potencies beside an inconclusive call are fits to weak or partial responses and may not hold up.
Biological target: Cruzipain (Trypanosoma cruzi) (UniProt P25779)
Experiment: qHTS Assay for Promiscuous and Specific Inhibitors of Cruzain (without detergent); note: nearly all actives have a fitted effect of over 40% in size;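 for max response, negative = inhibition: plate controls were enzyme without inhibitor for no effect and buffer without enzyme for full effect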
Settings: purified cruzain, Z-FR-AMC fluorescence, no detergent
Summary of the method: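 Detergent-free condition (0.00005% Triton X-100) in acetate buffer pH 5.5 with DTT. 1.5 nM enzyme and compound were pre-mixed 15 min, then 2 uM Z-FR-AMC substrate added; reaction progress from fluorescence change between first and third reads (60 s).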
Potency is the fitted concentration of half-maximal effect; tags give direction and shape of the fitted curve.

UniProt P25779, sequence (P25779 whole entry, looked up): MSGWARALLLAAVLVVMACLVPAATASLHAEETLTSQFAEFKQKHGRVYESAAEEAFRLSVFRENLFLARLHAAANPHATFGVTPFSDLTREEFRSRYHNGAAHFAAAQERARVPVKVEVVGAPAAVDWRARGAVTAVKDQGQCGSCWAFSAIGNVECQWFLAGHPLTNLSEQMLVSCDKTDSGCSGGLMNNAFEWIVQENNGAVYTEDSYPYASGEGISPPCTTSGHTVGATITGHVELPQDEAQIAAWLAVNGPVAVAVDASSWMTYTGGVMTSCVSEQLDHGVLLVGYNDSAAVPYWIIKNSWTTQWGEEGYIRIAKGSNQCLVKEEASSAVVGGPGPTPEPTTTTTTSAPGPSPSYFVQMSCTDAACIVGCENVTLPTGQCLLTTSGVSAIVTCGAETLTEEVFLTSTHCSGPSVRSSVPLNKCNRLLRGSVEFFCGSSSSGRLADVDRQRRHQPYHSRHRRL

SMILES	Potency	max response, negative = inhibition
COc1cc(OC)c(-c2nn3c(-c4ccco4)nnc3s2)cc1OC	inconclusive: 25.1 µM [activator, partial curve]	–
COc1ccc(Nc2nc(-c3cccs3)nc3ccccc23)c(OC)c1	inconclusive: 31.6 µM [inhibitor, single point]	–
CCOC(=O)C1CCCN(C(=O)Cn2ncc3c(C)n(Cc4ccccc4Cl)c(C)c3c2=O)C1 (centres undefined)	inconclusive: 31.6 µM [activator, single point]	–
Cc1ccccc1NCC(=O)N/N=C/c1c(C)c(C(=O)c2ccc(Cl)cc2)n2ccccc12	active: 7.94 µM	–
COC(=O)c1c(NC(=O)c2nc3ccccc3s2)sc2c1CCN(C(C)=O)C2	inconclusive: 25.1 µM [activator, single point]	–
c1ccc(-c2n[nH]c(-c3ccccn3)n2)cc1	–	inactive: -1.66%
Nc1ccccc1-c1nnc(-c2ccc(-c3ccccc3)cc2)o1	inconclusive: 39.8 µM [inhibitor, single point]	–
O=C1C2C(c3ccccc3)=NN(c3ccccc3)C2C(=O)N1c1ccccc1 (centres undefined)	inconclusive: 31.6 µM [inhibitor, single point]	–
Cc1nnc(NC(=O)CSc2nnc(Cc3cccn3C)n2-c2cccc(C(F)(F)F)c2)s1	inconclusive: 31.6 µM [activator, single point]	–
O=c1c2ccccc2nc(SCc2ccc([N+](=O)[O-])cc2)n1-c1ccccc1	inconclusive: 39.8 µM [inhibitor, single point]	–
Cc1ccc(NC(=O)c2c(C)nc3sc(C(=O)Nc4ccc(F)cc4)c(N)c3c2-c2ccc(C)o2)c(C)c1	–	inactive: -17.4%
COc1ccccc1-c1cnnc(N/N=C/c2ccc(-c3cccc(Br)c3)o2)n1	inconclusive: 31.6 µM [inhibitor, single point]	–
CCCCCCNc1cc2n(c(=O)n1)CCc1cc(OC)c(OC)cc1-2	–	inactive: -12.6%
COc1ccc(/C=C/C(=O)c2c(C)nc3ccccn23)cc1	inconclusive: 39.8 µM [activator, single point]	–
Cc1ccc(C)c(NC(=O)Cn2c(=O)n(-c3ccc(CC(=O)NCC4CCCO4)cc3)c(=O)c3ccccc32)c1 (centres undefined)	inconclusive: 31.6 µM [activator, single point]	–
COc1ccc(C(C)=O)cc1COC(=O)CNC(=O)c1ccccc1F	inconclusive: 12.6 µM [inhibitor, partial curve, poor fit]	–
CC(C)c1ccc2[nH]c(O)c(N=NC(=O)c3cccc(S(=O)(=O)Nc4ccccc4Cl)c3)c2c1	inconclusive: 39.8 µM [inhibitor, single point]	–
CC1CCC(C(C)C)C(OC(=O)C2=C3c4ccccc4S(=O)(=O)N3CC2)C1 (centres undefined)	active: 31.6 µM	–
Cc1ccc2nc(/C(C#N)=C\c3cc(C)n(-c4cccc([N+](=O)[O-])c4)c3C)[nH]c2c1	active: 25.1 µM	–
Cc1ccc(Cn2cc(C(=O)c3ccc4c(c3)OCO4)c(=O)c3cc(C)ccc32)cc1	inconclusive: 25.1 µM [inhibitor, single point]	–
COc1cc(-c2nc3ccc4ccccc4c3c3c2CCC3)cc(OC)c1O	inconclusive: 31.6 µM [activator, single point]	–
COc1cccc(-n2c(SCC(=O)Nc3nnc(C)s3)nc3c([nH]c4ccccc43)c2=O)c1	inconclusive: 39.8 µM [activator, single point]	–

SMILES	Potency	max response, negative = inhibition
CCOc1ccc(NC(=O)C2CCCN(S(=O)(=O)c3c(C)noc3/C=C/N(C)C)C2)cc1 (centres undefined)	inconclusive: 39.8 µM [activator, single point]	–
COCCNC(=O)CSc1nc(-c2ccccc2)[nH]c1-c1ccc(OC)cc1	–	inactive: -12.5%
CCOc1ccccc1Nc1nc(-c2sc(NC(=O)c3cccc(Cl)c3)nc2C)cs1	active: 6.31 µM	–
CCOC(=O)C1CCN(c2nc(-c3ccccc3)nc3c2oc2ccccc23)CC1	active: 20 µM	–
C=CCn1c(SCC(=O)Nc2ccccc2OC)nc(O)c(CC)c1=O	inconclusive: 12.6 µM [inhibitor, partial curve, poor fit]	–
COc1ccccc1Cc1nc2ccccc2nc1SCC(=O)Nc1cc(Cl)ccc1OC	inconclusive: 5.01 µM [inhibitor, single point]	–
N#Cc1c(N2CCN(C(=O)c3ccccc3Cl)CC2)nc(-c2ccccc2)c2c1CCCC2	inconclusive: 39.8 µM [inhibitor, single point]	–
Cc1ccc(Cn2nnnc2CN2CCC(O)(c3ccc(F)cc3)CC2)cc1	inconclusive: 31.6 µM [activator, single point]	–
CCc1c(C)c2cc(Cl)c(O)c(CN(CC)CC)c2oc1=O	inconclusive: 39.8 µM [inhibitor, single point]	–
CC(C)COc1ccc(-c2nn(-c3ccccc3)cc2C(=O)Nc2nccs2)cc1	active: 10 µM	–
Fc1ccc(-c2n[nH]c(=S)n2/N=C/c2c[nH]c3ccccc23)cc1	inconclusive: 31.6 µM [inhibitor, single point]	–
Cc1c(C(=O)Nc2ccc(OCc3ccccc3)cc2)cccc1[N+](=O)[O-]	inconclusive: 31.6 µM [inhibitor, single point]	–
CN(C)c1ccc(/C=C2/SC(=O)N(CCN=C3NS(=O)(=O)c4ccccc43)C2=O)cc1	inconclusive: 31.6 µM [inhibitor, single point]	–
Cc1cc(C)nc(SCc2nnc(SCC(=O)Nc3ncc(C)s3)n2Cc2ccco2)n1	inconclusive: 39.8 µM [activator, single point]	–
CC(C)Cc1nc2sc3c(=O)n(N)cnc3c2c2c1COC(C)(C)C2	inconclusive: 39.8 µM [activator, single point]	–
Cc1cc(C)cc(NC(=O)Nc2nnc(N(C)C3CCCCC3)s2)c1	inconclusive: 39.8 µM [activator, single point]	–
c1ccc(C2CO2)cc1 (centres undefined)	–	inactive: -2.44%
Cc1cccc(C)c1OCc1cc(=O)n2c3c(sc2n1)CCCC3	–	inactive: -13.4%
O=C(NC(Cc1ccccc1)c1ccc2c(c1)OCCCO2)c1ccc(F)cc1 (centres undefined)	inconclusive: 25.1 µM [inhibitor, single point]	–
O=C(Nc1ccc2c(c1)OCO2)c1cnn2c(C(F)(F)F)cc(-c3ccco3)nc12	inconclusive: 25.1 µM [activator, single point]	–
COc1ccc(-n2cc(-c3ccccc3)c3c(NC4CCCC4)ncnc32)cc1	–	inactive: 3.81%
CCCOc1ccc(N2C(=O)CC(NCCNc3ccc(S(=O)(=O)CC)cc3)C2=O)cc1 (centres undefined)	inconclusive: 25.1 µM [activator, single point]	–

SMILES	Potency	max response, negative = inhibition
CCC(C)(C)c1ccc(OCCN2C(=O)NC(C)(C)C2=O)cc1	inconclusive: 39.8 µM [activator, single point]	–
Cc1ccc(C(=O)COC(=O)C(Cc2c[nH]c3ccccc23)NC(=O)c2ccc(C(C)(C)C)cc2)cc1 (centres undefined)	active: 10 µM	–
Cc1ccc(-c2nnc(NCc3nc4ccccc4[nH]3)c3ccccc23)cc1S(=O)(=O)N1CCCCC1	active: 12.6 µM	–
CCN(CC)S(=O)(=O)c1cccc(-c2nnc(SCc3nc4ccccc4s3)o2)c1	inconclusive: 39.8 µM [inhibitor, single point]	–
CCCCc1ccc(-c2c(C#N)c(N)nc3c2CCCC3)s1	active: 25.1 µM	–
Cc1ccc(Cl)cc1N1CCN(C(=O)C2CCCN(S(=O)(=O)c3cnc[nH]3)C2)CC1 (centres undefined)	inconclusive: 31.6 µM [activator, single point]	–
O=C(c1cc(-c2ccc(Cl)cc2)n(-c2ccc(Cl)cc2Cl)n1)N1CCOCC1	inconclusive: 39.8 µM [activator, single point]	–
CC(C)OP(=O)(OC(C)C)C(Nc1ccccc1)c1ccccc1C(F)(F)F (centres undefined)	inconclusive: 25.1 µM [activator, single point]	–
NS(=O)(=O)c1ccc(NC(=O)Nc2ccccc2F)cc1	–	inactive: 1.03%
CCOCCCNC(=O)C1CCCN1S(=O)(=O)c1ccc(Cl)cc1 (centres undefined)	–	inactive: -7.8%
CCCCCn1c(NC(=O)c2ccco2)c(C(=O)OCC)c2nc3ccccc3nc21	inconclusive: 31.6 µM [activator, single point]	–
O=C(Nc1ccc(F)c(Cl)c1)c1cc(S(=O)(=O)N2CCCc3ccccc32)ccc1F	inconclusive: 31.6 µM [inhibitor, single point]	–
CCOc1cc(C(=O)Nc2ccc3c4c(cccc24)C(=O)N3CC)cc(OCC)c1OCC	inconclusive: 31.6 µM [activator, single point]	–
CC(C)C(NS(=O)(=O)c1cccs1)C(=O)NCCN1CCN(c2ccccc2)CC1 (centres undefined)	active: 25.1 µM	–
Cc1ccc(CN2CCN(CC(=O)NCc3ccccc3Cl)C2=O)cc1	–	inactive: -9.02%
COc1cc(OC)c(C(=O)Nc2ccc(S(=O)(=O)Nc3ncccn3)cc2)cc1OC	inconclusive: 39.8 µM [activator, single point]	–
O=[N+]([O-])c1cc(/C=N\Nc2nccs2)ccc1O	active: 31.6 µM	–
COc1ccc(C(=O)N2CCc3cc(OC)c(OC)cc3C2COc2ccc3c(C)cc(=O)oc3c2)c(OC)c1 (centres undefined)	inconclusive: 7.94 µM [activator, full curve]	–
COc1cccc(-c2cc(C(=O)Nc3ccc(C)cc3)[nH]n2)c1	inconclusive: 25.1 µM [inhibitor, single point]	–
Cc1cc(C(=O)NCCc2ccccc2)ccc1[N+](=O)[O-]	–	inactive: -1.22%
